Results as given in PubChem BioAssay AID602310 (National Center for Advancing Translational Sciences (NCATS), 2012).
In all, about 410,000 compounds went through this assay and about 310 (0.076%) were called active. The inconclusive results got no clear call from the source; some entries with a clear call stand among them for comparison. The call rests on the fitted dose curve; in most records, active means well fitted curve in the direction sought with a large enough effect; inconclusive means small, poorly fitted or top-dose-only effect; inactive means flat fitted curve, though single readings scatter. Potencies of inconclusive entries are doubtful fits and often do not repeat.
Further: nearly all actives have a fitted effect of over 60% in size.
On the % scale 0 is the no-effect control and ±100 the full control effect; potency means the concentration at half of the fitted maximal effect; tags describe the fitted curve by direction and shape.
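Wherever activity, negative = active is given: hits raise eYFP signal because A3G escapes Vif-driven loss.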

What follows are compounds tested against DNA dC->dU-editing enzyme APOBEC-3G (Homo sapiens) (UniProt Q9HC16) (assay: qHTS for Inhibitors of Vif-A3G Interactions: qHTS). Conditions: HeLa A3G-eYFP + Vif (tagged APOBEC3G with the HIV-1 protein that degrades it), YFP fluorescence, overnight; series mostly up to 46.1 µM; activity, negative = active: at the top concentration.
Sequence of UniProt Q9HC16 (Q9HC16 whole entry, looked up): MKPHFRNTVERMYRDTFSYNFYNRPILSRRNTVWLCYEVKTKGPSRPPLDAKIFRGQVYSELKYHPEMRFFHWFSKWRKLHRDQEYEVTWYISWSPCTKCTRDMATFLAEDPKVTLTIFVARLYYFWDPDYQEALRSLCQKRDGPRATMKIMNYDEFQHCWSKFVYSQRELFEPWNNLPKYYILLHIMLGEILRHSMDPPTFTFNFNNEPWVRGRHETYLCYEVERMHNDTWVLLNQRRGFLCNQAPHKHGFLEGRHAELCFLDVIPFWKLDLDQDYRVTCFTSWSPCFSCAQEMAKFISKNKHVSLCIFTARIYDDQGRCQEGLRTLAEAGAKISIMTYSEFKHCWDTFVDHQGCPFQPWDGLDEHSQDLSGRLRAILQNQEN
Method in brief: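 Read-out is eYFP fluorescence (Ex 488/Em 500-530) from Vif-expressing HeLa A3G-eYFP cells; more signal means A3G escaped Vif-mediated degradation. Cells plated overnight, compound pinned in, incubated overnight at 37 deg C.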
Cc1ncc(CO)c2c1Oc1nc(-c3ccccc3F)nc(SCC(=O)N(C)c3ccccc3)c1C2 was tested, and the Potency was inconclusive: 35.5 µM [inhibitor, single point].
For F[B-](F)(F)c1cc2cc(Br)ccc2s1, the Potency was inconclusive: 35.5 µM [inhibitor, partial curve, poor fit].
In the case of CCOC(=O)c1ccc(NC(=O)Cn2nc3c4ccccc4n(Cc4cccc(F)c4)cc-3c2=O)cc1, the Potency is reported as inconclusive: 3.16 µM [inhibitor, single point].
COc1cccc(NC2=C(Cl)C(=O)OC2OC(=O)c2ccco2)c1 (stereo not drawn) was tested, and the Potency was inconclusive: 35.5 µM [inhibitor, single point].
With O=C(CCc1ccccc1)Nc1ccc(Cl)cn1 the Potency was inconclusive: 10 µM [inhibitor, partial curve, poor fit].
In the case of C=CCn1c(SCC(=O)Nc2ccc(-c3nc4ccc(C)cc4s3)cc2)nnc1-c1ccccc1, the “activity, negative = active” value is reported as inactive: -8.08%.
COc1cc(OC)c(/C=C/c2ccc3ccccc3[n+]2C)c(OC)c1 was tested, and the Potency was inconclusive: 7.08 µM [inhibitor, partial curve, poor fit].
In the case of CN1CCN(c2ccc(NC(=O)c3ccc([N+](=O)[O-])o3)cc2Cl)CC1, the Potency is reported as inconclusive: 35.5 µM [inhibitor, single point].
In the case of CC1CN(C(=O)/C=C/c2ccc([N+](=O)[O-])s2)CC(C)O1 (stereo not drawn), the Potency is reported as inconclusive: 15.8 µM [inhibitor, single point].
Cc1cc(C(=O)Nc2sc3c(c2C#N)CCC3)no1 was tested, and the Potency was inconclusive: 4.47 µM [inhibitor, full curve, poor fit].
For Cc1cccc(N2CCN(C(=O)c3ccc4nccnc4c3)CC2C)c1 (stereo not drawn), the “activity, negative = active” value was inactive: -5.54%.
CC(=NNC(=S)N1CCC1)c1ccccn1 was tested, and the Potency was inconclusive: 5.01 µM [inhibitor, single point].
COc1ccc(-c2coc3c(C(=O)NCCN4CCOCC4)cccc23)c(C)c1 was tested, and the Potency was inconclusive: 11.2 µM [inhibitor, single point].
COc1ccccc1/C=C/C=N/NC(=O)CCC1C(=O)NN=C1C (stereo not drawn) was tested, and the “activity, negative = active” value was inactive: 0.879%.
For N#C/C(=C(/O)CCl)c1nc(-c2ccccc2)cs1, the Potency was inconclusive: 25.1 µM [inhibitor, single point].
With C=C(C)C(=O)Oc1ccc(N=Nc2ccc(C)cc2)ccc1=O the Potency was inconclusive: 35.5 µM [inhibitor, single point].
For Cc1ccc(SCC(=O)OCC(=O)N(CC(C)C)c2c(N)n(Cc3ccccc3)c(=O)[nH]c2=O)c(C)c1, the Potency was inconclusive: 35.5 µM [inhibitor, single point].
For CCN1C(=O)/C(=C\N2CCN(c3ccc(F)cc3)CC2)SC1=S, the Potency was inconclusive: 35.5 µM [inhibitor, partial curve, poor fit].
In the case of CCOc1cc(/C=C2\CCC/C(=C\c3cc(Cl)c(O)c(OCC)c3)C2=O)cc(Cl)c1O, the Potency is reported as active: 3.16 µM.
CCN(CC(=O)Nc1cc(C)nn1-c1nc(C)cc(C)n1)Cc1ccccc1 was tested, and the Potency was inconclusive: 35.5 µM [inhibitor, single point].
CCN(CC)c1ccc(C=NNc2ccc([N+](=O)[O-])cn2)cc1 was tested, and the Potency was inconclusive: 2.82 µM [inhibitor, full curve].
With COCCOC(=O)c1[nH]c2c(c1C)C(=O)CC(c1cccs1)C2 (stereo not drawn) the Potency was inconclusive: 1.78 µM [inhibitor, full curve, poor fit].
Cc1coc(NC(=O)CSc2nc(-c3ccncc3)cc(C(F)(F)F)c2C#N)n1 was tested, and the Potency was inconclusive: 17.8 µM [inhibitor, partial curve, poor fit].
In the case of Cc1nn(-c2ccccc2)c(N)c1N=Nc1cccc(S(=O)(=O)N2CCOCC2)c1, the Potency is reported as inconclusive: 17.8 µM [inhibitor, single point].
O=[N+]([O-])c1cccnc1N1CCC(c2cc(-c3ccc(Cl)cc3Cl)n[nH]2)CC1 was tested, and the Potency was inconclusive: 35.5 µM [inhibitor, single point].
With O=[N+]([O-])c1ccc(-c2ccc(/C=N/Nc3nc(NCc4ccccc4)nc(N4CCOCC4)n3)o2)cc1 the Potency was inconclusive: 17.8 µM [inhibitor, partial curve, poor fit].
For O=C(N/N=C\c1ccc(Cl)s1)C1COc2ccccc2O1 (stereo not drawn), the Potency was inconclusive: 7.08 µM [inhibitor, partial curve].
For CCN(CC)c1ccc(NC(=O)c2cnccn2)cc1S(=O)(=O)Nc1ccc(OC)cc1, the Potency was inconclusive: 17.8 µM [inhibitor, single point].
O=C(CN(Cc1ccccc1)C(=O)CCl)c1cccc(Br)c1 was tested, and the Potency was inconclusive: 25.1 µM [inhibitor, single point].
In the case of N#Cc1c(-c2ccccc2Cl)noc1/C=C/Nc1ccc(C(=O)O)cc1, the Potency is reported as inconclusive: 15.8 µM [inhibitor, single point].
O=C(CSc1nc2ccccc2c(=O)n1CCCN1CCOCC1)c1c[nH]c2ccccc12 was tested, and the “activity, negative = active” value was inactive: -11.8%.
O=C(Nc1ccc(Cl)cc1Cl)[C@@H]1CC=C[C@@H]2CCN(C3CCCCC3)C(=O)[C@@H]21 was tested, and the “activity, negative = active” value was inactive: -2.85%.
For CC(C)c1ccc(CN2CCN(C(=O)CCl)CC2)cc1, the Potency was inconclusive: 35.5 µM [inhibitor, single point].
For Cc1ccc(S(=O)(=O)N(CC(=O)Nc2ccccc2C(=O)O)c2cccc(Cl)c2C)cc1, the Potency was inconclusive: 31.6 µM [inhibitor, partial curve, poor fit].
In the case of COC(=O)C1=C(C)N=C2SC(C#N)=C(N)N2C1c1cccc(OC)c1 (stereo not drawn), the “activity, negative = active” value is reported as inactive: -11.6%.
For Cn1c(/C=C/c2cccc(Br)c2)nc2ccccc2c1=O, the Potency was inconclusive: 35.5 µM [inhibitor, single point].
Clc1cccc(N2CCN(Cc3ccc(Br)o3)CC2)c1 was tested, and the “activity, negative = active” value was inactive: 0.259%.
In the case of COc1cccc(CSc2nc3cc4c(cc3cc2C)OCCO4)c1, the Potency is reported as inconclusive: 22.4 µM [inhibitor, single point].
With CCOc1ccc(/C=N/NC(=O)c2cc(-c3ccco3)nc3ccccc23)cc1 the Potency was inconclusive: 12.6 µM [inhibitor, partial curve].
For NC1(C(=O)O)CSSC1, the Potency was inconclusive: 3.55 µM [inhibitor, single point].
With COc1cc(C(=O)N/N=C/c2ccc(OC(=O)c3ccccc3)c(OC)c2)ccc1O the Potency was inconclusive: 25.1 µM [inhibitor, single point].
For COc1ccc(CCNC(=O)Cc2c(C)c3c(cc(C)c4c(C)coc43)oc2=O)cc1, the “activity, negative = active” value was inactive: 3.18%.
With O=C(N/N=C/c1cccs1)c1n[nH]c2c1CCCC2 the Potency was inconclusive: 22.4 µM [inhibitor, single point].
In the case of CCOC(=O)c1[nH]c2ccccc2c1NC(=O)c1ccccc1OCC, the Potency is reported as inconclusive: 0.794 µM [inhibitor, full curve, poor fit].
In the case of O=C1COc2ccccc2N1Cc1c(F)cccc1Cl, the “activity, negative = active” value is reported as inactive: 1.87%.
With O=C(CCN1C(=O)NC2(CCCC2)C1=O)Nc1ccc(-c2nc3ccccc3s2)cc1 the Potency was inconclusive: 31.6 µM [inhibitor, single point].
In the case of CCCOP(=O)(OCCC)c1c([N+](=O)[O-])cc(C(F)(F)F)cc1[N+](=O)[O-], the Potency is reported as inconclusive: 35.5 µM [inhibitor, single point].
For Cc1cccc(C(=O)Nc2cccc(C(=O)N/N=C/c3ccc4c(c3)OCO4)c2)c1, the Potency was inconclusive: 11.2 µM [inhibitor, partial curve].
CCOc1c(Cl)cc(CNc2ccc(N3CCCC3)cc2)cc1OC was tested, and the Potency was inconclusive: 7.08 µM [inhibitor, partial curve, poor fit].
COCCNc1nc(Nc2ccc(C(=O)OC)cc2)c2sccc2n1 was tested, and the Potency was inconclusive: 35.5 µM [inhibitor, single point].
For COc1cc(NC(=O)C2=C(N3CCOCC3)/C(=C\c3ccc(N(C)C)cc3)CCC2)cc(OC)c1OC, the Potency was inconclusive: 5.62 µM [inhibitor, full curve, poor fit].
With COc1cccc(OC)c1C(=O)Oc1ccc2c(c1)O/C(=C\c1ccncc1)C2=O the Potency was inconclusive: 11.2 µM [inhibitor, partial curve].
For CCOC(=O)c1cc2c(=O)n3ccccc3nc2n(C(C)C)c1=NC(=O)C(C)(C)Oc1ccc(Cl)cc1, the “activity, negative = active” value was inactive: -3.6%.
In the case of N#Cc1c(-c2ccccc2)cc(-c2ccccc2)nc1SCC(O)CS(=O)(=O)Cc1ccc(Cl)cc1 (stereo not drawn), the “activity, negative = active” value is reported as inactive: -1.67%.
O=C(C[C@H]1C/C=C\CC[C@@H](Cc2ccc(F)cc2)C(=O)O[C@@H](c2ccccc2)CNC1=O)N[C@H](CO)Cc1ccccc1 was tested, and the Potency was inconclusive: 35.5 µM [inhibitor, single point].
O=C(N/N=C/c1cc(Br)c(Br)o1)c1ccc2c(c1)OCCO2 was tested, and the Potency was inconclusive: 12.6 µM [inhibitor, single point].
CCOc1c(Br)cc(CNc2ccc3c(c2)OCCO3)cc1OC was tested, and the Potency was inconclusive: 1.12 µM [inhibitor, full curve, poor fit].
For CCOC(=O)C1(Cc2ccccc2)CCN(Cc2cn(CC(=O)OC)c3ccccc23)CC1, the “activity, negative = active” value was inactive: 0.83%.
O=C(Cn1c2ccc(F)cc2c2nc3n(c(=O)c21)CCS3)Nc1ccc(Cl)cc1F was tested, and the Potency was inconclusive: 25.1 µM [inhibitor, single point].
For COc1ccc(-c2nc(SCC(=O)N(CC(C)C)c3c(N)n(Cc4ccccc4)c(=O)[nH]c3=O)n[nH]2)cc1, the “activity, negative = active” value was inactive: -9.51%.
O=C(CN1C(=O)NC2(CCc3ccccc32)C1=O)NCc1ccccc1Cl (stereo not drawn) was tested, and the Potency was inconclusive: 12.6 µM [inhibitor, partial curve, poor fit].
CCC(C)Sc1cc(-c2nc3cc(C)ccn3c2NC2CCCCC2)ccc1OC (stereo not drawn) was tested, and the Potency was inconclusive: 35.5 µM [inhibitor, single point].
For CC1=CC(=O)C(C(C)C)=C/C1=N/OS(=O)(=O)c1ccccc1, the Potency was inconclusive: 3.16 µM [inhibitor, full curve, poor fit].
